# Laboratory results from the supplement of paper PMC3334620.
# The full ranking holds about 33,000 sequences; the median of “E-score (-0.5 to 0.5)” is about -0.017, and the highest 2% start at about 0.3. Some of the results follow.
# Target: T1, Sut1 (UniProt P53032)
# T1 sequence: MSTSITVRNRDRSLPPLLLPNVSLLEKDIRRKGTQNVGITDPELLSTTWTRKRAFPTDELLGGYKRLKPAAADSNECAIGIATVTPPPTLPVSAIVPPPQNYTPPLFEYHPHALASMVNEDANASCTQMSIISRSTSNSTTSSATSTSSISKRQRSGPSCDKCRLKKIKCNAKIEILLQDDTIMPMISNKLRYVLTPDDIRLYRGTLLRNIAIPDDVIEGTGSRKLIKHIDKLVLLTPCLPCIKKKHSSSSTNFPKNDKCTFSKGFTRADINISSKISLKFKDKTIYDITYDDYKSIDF
# Test: PBM E-score (8-mer binding enrichment) (E-score (-0.5 to 0.5)); higher = stronger / more preferred TF binding; most listed sequences are background and not binding sites
# Settings: protein concentration: 200 nM; construct: GST-full length
# Procedure, shortened: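 Yeast transcription factors, full-length or as DNA-binding domains, were expressed with a GST tag using PURExpress in vitro transcription/translation. At about 100-200 nM they were applied to universal all-10-mer Agilent arrays, double-stranded by primer extension on fresh or once-stripped slides. Fluorescent anti-GST detected bound protein, and masliner normalised the scans. E-scores for ungapped eight-base words, pooled with reverse complements, came from the Universal PBM Analysis Suite.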
row,Sequence,PBM E-score
1,CATACAGA,0.139
2,ATGGAGGC,-0.214
3,AGGGACTC,-0.186
4,AGGGCGGA,0.0562
5,ACCAAGTG,-0.101
6,GATTAAAC,0.114
7,ATGTCGTA,-0.0172
8,AGAACCTG,-0.0844
9,CGTGTCCA,-0.221
10,TAACGATA,0.221
11,CCTGTCCC,-0.184
12,ATATTTCC,0.224
13,AATGGTGT,0.0953
14,TATGCCGA,0.131
15,GTCGGCGA,-0.0786
16,TGATCGAA,-0.131
17,CAGCTCAG,-0.262
18,ATGGCATG,-0.0543
19,AGCTAAAA,0.0925
20,ATTCGAAG,0.0299
21,TAGAGCAA,-0.133
22,ACAGCCTC,-0.278
23,CATTTTAG,0.226
24,CGCTCCAC,-0.012
25,TCTTTACA,0.167

row,Sequence,PBM E-score
1,CTTTTGTC,0.232
2,TATCACAA,0.0853
3,GCACCATA,-0.225
4,CTGCCGTA,-0.233
5,GGTTCGTA,0.0442
6,CCCTTCAC,-0.253
7,AAGGCTGT,-0.106
8,CGCGGTAA,0.0984
9,AGGGCCTC,-0.0172
10,GACCCTAC,-0.16
11,GGTCGAAA,-0.14
12,ATAGCGAT,-0.0999
13,GGTACTCA,-0.00906
14,AACTTGAC,-0.00987
15,CTACGGAA,0.0897
16,GCGCCGAC,-0.092
17,CCCTGCAC,-0.232
18,GCATTAGA,0.023
19,ATAAATCA,0.102
20,AGTGGAGC,-0.0133
21,AGGTGGCA,-0.103
22,CGGAGCTA,0.385
23,CCGGTGAA,0.102
24,TATGCCAA,-0.0127
25,AAGGTCGT,-0.135

row,Sequence,PBM E-score
1,AGGGAGTC,-0.22
2,AAAGCCTC,-0.0361
3,GAGAGTAC,-0.0509
4,GATACCGA,-0.0856
5,GGATACCA,-0.119
6,AACACAGT,0.143
7,TCCCATAA,-0.0866
8,TACCTCGA,-0.0766
9,CAGTAACG,0.125
10,ACAGTGGC,-0.216
11,CGTTCAAG,0.0209
12,GGGCTGGA,-0.122
13,GCAGAGGA,-0.102
14,CATCTACG,-0.0146
15,AAGAGATC,-0.168
16,AAACTCGC,0.0303
17,AGCCCCAC,-0.101
18,CCGCTTCC,0.0265
19,ATTTACCA,0.218
20,ACAGTTGC,-0.0853
21,CCACTTAA,0.165
22,AGGTGCTC,-0.33
23,AACCGGAG,0.43
24,GGGGAGCA,-0.344
25,CTGCAAAG,-0.243

row,Sequence,PBM E-score
1,GCCGCCAC,-0.352
2,CTATCCTA,0.00389
3,CGGTAATC,0.0375
4,AGCATCCA,-0.127
5,GCAAATCC,0.138
6,CTCCACAC,-0.141
7,ATGGTTAG,0.0916
8,ACAACGTG,-0.105
9,CTGAAGTA,0.086
10,CAGCTAAG,-0.271
11,CGGCAACG,-0.0534
12,GGCTAGAC,-0.106
13,CTGCTTAA,0.00411
14,CTGCCCAG,-0.222
15,CCAGTTAG,-0.0225
16,CCACCGCC,-0.247
17,GAGACTCA,0.0442
18,ATTTGGCA,-0.0085
19,CCATTGCA,-0.0889
20,ACCGACCG,-0.0166
21,AGTTCTAC,-0.159
22,CAATTGAC,0.0698
23,CTCGAACA,0.00064
24,ACTTACTG,0.102
25,CCGTAGCC,-0.315

row,Sequence,PBM E-score
1,ACTCATGG,-0.11
2,ATTTCTTC,0.259
3,AGGGGCTG,-0.147
4,GGCAACCA,-0.0149
5,AGATGAAG,0.03
6,GCCTGTTA,-0.172
7,ATGATCAC,-0.00298
8,AAACCTAC,0.156
9,ACCCGCAG,0.0584
10,CACCGTGA,-0.0886
11,ACGCCGCT,-0.0911
12,GGTCATTA,-0.137
13,AACATATT,0.249
14,GATCTGCA,-0.127
15,TAATTTAA,0.283
16,AGAACCAT,0.12
17,CATAGTCC,0.217
18,TCTTCTAA,0.188
19,ACGCAAGC,0.0115
20,CTTCTCTA,-0.0797
21,AATACCTC,0.0189
22,AGCAGTTA,0.145
23,AAGCCGCC,-0.169
24,AGAGTACC,-0.0251
25,ACTAAGGG,-0.143

row,Sequence,PBM E-score
1,CTCAAGAA,0.0287
2,CCACTGCC,-0.12
3,GGATGAAA,0.111
4,CTTCTAGC,-0.0899
5,CATGGAAC,-0.41
6,CGGCGTAC,0.023
7,GCATTAAA,0.0763
8,AACGCAAA,0.0936
9,ATAACGCG,-0.0533
10,CCGAAGGC,0.0334
11,ACTACTCG,0.197
12,AGATGGCC,-0.0974
13,GATAGCGC,-0.13
14,AACACCAT,-0.0541
15,ACAAAAAT,0.272
16,ATCTTAGC,0.00142
17,AGAAGTGA,0.0327
18,CAATTCTG,-0.101
19,TGCTAAAA,-0.0228
20,CGCGACCC,-0.119
21,TCGACAGA,-0.158
22,AATGGTCA,0.0343
23,GCTGAATA,0.0643
24,CCGATGGC,-0.0431
25,CACTATCC,-0.00527

row,Sequence,PBM E-score
1,AAAAAAGC,0.086
2,GATCGGCA,-0.151
3,GATTGCTA,-0.107
4,AGCCCTTG,-0.132
5,TAGATCGA,0.0111
6,GGGAGAAC,-0.0542
7,TCAGTTCA,0.00153
8,ATTGTTTG,0.0639
9,ATGGGCAA,-0.06
10,TGGGCACA,-0.176
11,AAGGTAAC,0.0861
12,ACTTGCAA,0.0929
13,AACCCTGT,-0.226
14,GTGTGAAC,-0.2
15,AGGATACT,-0.0531
16,ACGCATTA,-0.0206
17,ACCAGCAT,-0.102
18,AGAATAGA,0.0525
19,ATTTAGGG,0.0972
20,ACATCAGG,-0.0576
21,CCGTCACC,-0.131
22,ATGCCATA,0.0321
